Hit rate of the full screen: of about 310,000 compounds, about 2,200 (0.71%) showed an effect of 50% or more. The effect is printed as a negative number. The list shows a part of the results.

Chain of human ether-à-go-go-related gene (hERG) potassium channel (Q12809 whole entry, looked up): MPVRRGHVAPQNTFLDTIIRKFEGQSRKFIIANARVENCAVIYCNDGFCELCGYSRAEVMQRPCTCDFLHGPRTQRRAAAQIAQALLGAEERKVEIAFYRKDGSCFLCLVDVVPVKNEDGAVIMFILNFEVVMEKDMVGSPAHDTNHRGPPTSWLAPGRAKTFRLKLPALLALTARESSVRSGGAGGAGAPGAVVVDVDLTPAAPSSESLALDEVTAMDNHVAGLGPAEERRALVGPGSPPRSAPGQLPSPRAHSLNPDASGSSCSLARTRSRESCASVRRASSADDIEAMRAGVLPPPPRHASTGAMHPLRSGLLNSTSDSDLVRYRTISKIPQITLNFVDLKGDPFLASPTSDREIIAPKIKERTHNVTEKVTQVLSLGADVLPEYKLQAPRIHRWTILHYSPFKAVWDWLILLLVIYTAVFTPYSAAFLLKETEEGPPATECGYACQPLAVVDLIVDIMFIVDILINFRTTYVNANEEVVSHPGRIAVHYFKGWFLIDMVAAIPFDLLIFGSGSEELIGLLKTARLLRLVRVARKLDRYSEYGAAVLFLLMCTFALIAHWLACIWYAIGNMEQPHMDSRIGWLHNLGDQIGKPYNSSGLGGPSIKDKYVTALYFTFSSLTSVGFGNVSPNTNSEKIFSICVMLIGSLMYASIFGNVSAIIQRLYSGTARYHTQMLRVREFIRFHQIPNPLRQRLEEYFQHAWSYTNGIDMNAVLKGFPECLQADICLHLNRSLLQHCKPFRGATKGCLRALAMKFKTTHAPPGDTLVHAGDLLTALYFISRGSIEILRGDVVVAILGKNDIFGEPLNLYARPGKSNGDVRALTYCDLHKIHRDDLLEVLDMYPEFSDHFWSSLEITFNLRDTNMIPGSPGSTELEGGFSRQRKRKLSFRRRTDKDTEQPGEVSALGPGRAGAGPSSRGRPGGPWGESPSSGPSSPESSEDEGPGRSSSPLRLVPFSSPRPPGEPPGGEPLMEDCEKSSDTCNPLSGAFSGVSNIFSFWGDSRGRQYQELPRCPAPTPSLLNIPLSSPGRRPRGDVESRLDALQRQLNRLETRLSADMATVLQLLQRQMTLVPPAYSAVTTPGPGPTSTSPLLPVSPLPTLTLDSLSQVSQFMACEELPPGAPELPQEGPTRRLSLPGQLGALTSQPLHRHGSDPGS

The experiment has as its target human ether-à-go-go-related gene (hERG) potassium channel (human, UniProt Q12809). In words: primary screen, population patch clamp on CHO cells stably expressing hERG.
As to `CC1=C2[C@H]3OC(=O)[C@@H](C)[C@@H]3CC[C@@]2(C)C=CC1=O`, the “hERG current change (%, negative = inhibition) at 1uM” value is 10.6%. As to `C=CCn1c(SCC(=O)O)nnc1-c1ccccc1`, the “hERG current change (%, negative = inhibition) at 1uM” value is listed as -8.04%. Turning to `N#CC1=C(N)Oc2n[nH]c(-c3cccs3)c2C1c1ccsc1` (stereo not drawn), the “hERG current change (%, negative = inhibition) at 1uM” value is on record as 7.12%. As for `Cc1ccc(Cl)cc1N1CCN(C(=O)CCS(=O)(=O)c2cccc3nonc23)CC1`, the “hERG current change (%, negative = inhibition) at 1uM” value is -0.669%. The same measure for `O=S1(=O)N(Cc2ccc(F)cc2)CCCN1Cc1ccccc1Cl`: 3.85%.

Take `COc1ccc(S(=O)(=O)N2CCc3ccccc32)cc1OC`: the “hERG current change (%, negative = inhibition) at 1uM” value worked out at 7.38%. For the molecule `Cc1nn(CC(=O)N2c3ccccc3NC(=O)C2(C)C)c(C)c1[N+](=O)[O-]`, the “hERG current change (%, negative = inhibition) at 1uM” value came out at 17.4%. The result for `CC(C)(C)CC(C)(C)Nc1c(-c2ccc(O)cc2)nc2cnccn12` reads 2.55%; that for `CCOc1ccc(C(=O)OC(C)CN2CCCCC2)cc1.Cl` (stereo not drawn), 4.48%; that for `C=CCNc1nc(N)c(C(=C(C#N)C#N)c2ccccc2)s1`, 22%. The same measure for `Nc1nc(C2CCCN2S(=O)(=O)c2ccc(Cl)cc2)cs1` (stereo not drawn): 2.44%; for `CC(=O)N(C)c1ccc(NCc2cc(=O)oc3cc(C)c(O)cc23)cc1`: -4.96%.

Take `COc1cc2[nH]cc(C(=O)NCc3cccs3)c(=O)c2cc1OC`: the “hERG current change (%, negative = inhibition) at 1uM” value was determined as 4.55%. The result for `NC(=O)c1oc2ccccc2c1NC(=O)CCc1ccccc1` reads 7.35%. Take `Cc1cc(C)c(-c2c(O)c3cnn(-c4ccccc4)c3[nH]c2=O)c(C)c1`: the “hERG current change (%, negative = inhibition) at 1uM” value was 12.9%. The result for `Cc1cc(C)cc(N2C(=O)CC(N(C(=O)c3ccco3)c3cc(C)cc(C)c3)C2=O)c1` (stereo not drawn) reads 5.58%; that for `Cc1ccc(C(=O)Nn2cnnc2)c(Cl)c1`, 11.5%; that for `O=C(NCc1ccco1)C1CCN(C(=O)c2ccc(Cl)cc2Cl)CC1`, 8.2%.

`O=C(Nc1ccc(Cl)cc1)N(Cc1cccnc1)Cc1ccco1`: the “hERG current change (%, negative = inhibition) at 1uM” value is -21.8%. Take `O=C(O)c1c[nH]c2c(C(F)(F)F)cccc2c1=O`: the “hERG current change (%, negative = inhibition) at 1uM” value amounted to 3.38%. The result for `Cc1onc(-c2ccccc2Cl)c1C(=O)Nc1ccc(-n2nncc2C(C)(C)C)cc1` reads 4.52%; that for `CC1CCCC(NC(=O)COC(=O)c2cccs2)C1C` (stereo not drawn), 10.7%. Take `O=[N+]([O-])c1ncccc1OCc1ccccc1Br`: the “hERG current change (%, negative = inhibition) at 1uM” value was determined as 6.25%. Regarding `CCOc1ccc(Nc2nc(N)nc(CN3CCN(c4ccccc4F)CC3)n2)cc1`, the “hERG current change (%, negative = inhibition) at 1uM” value was -25.6%.

On to `O=C(Nc1ccc(N2CCOCC2)cc1)C1CCN(C(=O)OCc2ccccc2)CC1`, for which the “hERG current change (%, negative = inhibition) at 1uM” value is recorded as 10.7%.

Turning to `Cc1ccc(N(CC(=O)NCc2ccccc2Cl)S(=O)(=O)c2c(C)noc2C)cc1`, the “hERG current change (%, negative = inhibition) at 1uM” value came to 13.1%. The result for `CCCC(C(=O)NC1CCCC1)N(Cc1ccccc1Cl)C(=O)c1snc(C(N)=O)c1N` (stereo not drawn) reads 8.74%; that for `O=C(N/N=C/c1c(O)n(Cc2ccc(F)cc2)c(=O)[nH]c1=O)c1ccccc1`, 3.75%; that for `CCc1c(C(=O)Nc2cc(C(=O)OC)ccc2C)csc1C`, 4.87%. The result for `O=C(N/N=C/c1ccco1)c1cc(-c2ccccc2)n[nH]1` reads -0.0654%; that for `Cc1nn(C)cc1CN(C)C(=O)c1ccc(OC2CCN(Cc3ccccn3)CC2)cc1`, 12.5%; that for `Cc1sc2ncn(CC(=O)NCC(=O)N(C)C3CCCCC3)c(=O)c2c1C`, -9.12%. The same measure for `CC(C)CNC(=O)c1ccccc1NC(=O)CCSc1ccccc1`: 12.9%; for `O=C(Oc1ccc(N(Cc2cccs2)C2=NS(=O)(=O)c3ccccc32)cc1)c1ccccc1`: -5.3%; for `CC1Cc2ccccc2N1CC(=O)Nc1ccc(Cl)c(S(=O)(=O)N(C)C)c1` (stereo not drawn): 1.68%. `COc1ccc(OC)c(-c2csc(NC(=O)COC(=O)c3ccc(NC(=O)CC#N)cc3)n2)c1`: the “hERG current change (%, negative = inhibition) at 1uM” value was found to be 13.7%. Take `CCN(CC)CCCNC(=O)c1cn(C)c(=O)c2c1c1ccccc1n2C`: the “hERG current change (%, negative = inhibition) at 1uM” value was determined as 14.2%.

Consider `CCCCOc1ncnc2c1[nH]c1ccc(OC)cc12`, for which the “hERG current change (%, negative = inhibition) at 1uM” value is given as 14.4%.

Consider `CC(=O)C(=[N+]=[N-])C(=O)NCc1ccccc1`, for which the “hERG current change (%, negative = inhibition) at 1uM” value stood at 13.9%. With `O=C(O)CSc1nnc(-c2ccccc2Br)n1-c1cccc(C(F)(F)F)c1`, the “hERG current change (%, negative = inhibition) at 1uM” value turned out to be 9.1%.

For the molecule `COC(=O)c1sc(S(=O)(=O)N2CCC(C)CC2)c(C(=O)OC)c1C`, the “hERG current change (%, negative = inhibition) at 1uM” value is given as -0.735%. Consider `CCOc1ccccc1NC(=O)c1ccc(NC(=O)C2CCCO2)cc1` (stereo not drawn), for which the “hERG current change (%, negative = inhibition) at 1uM” value is given as 11.5%. In the case of `N#CCSc1nc2sccc2c(=O)n1-c1ccccc1`, the “hERG current change (%, negative = inhibition) at 1uM” value was determined as 12.2%.

In the case of `O=C(CN(c1cccc(Cl)c1)S(=O)(=O)c1ccccc1)NN=C1CCCC1`, the “hERG current change (%, negative = inhibition) at 1uM” value was found to be 4.25%. Consider `O=C(COC(=O)c1ccc(F)c(S(=O)(=O)N2CCOCC2)c1)Nc1ccc2[nH]c(=O)[nH]c2c1`, for which the “hERG current change (%, negative = inhibition) at 1uM” value was 16.3%. Take `CN(CCc1cn[nH]c1)Cc1nc(C(c2ccccc2)c2ccccc2)no1`: the “hERG current change (%, negative = inhibition) at 1uM” value turned out to be 1.13%. As to `CCN(CC)C(=O)N1c2ccccc2CC(N(CC)CC)c2ccccc21` (stereo not drawn), the “hERG current change (%, negative = inhibition) at 1uM” value came out at 4.6%. Regarding `CCOC(=O)C1CCCN(C(=O)c2cc3ccc(OC)cc3[nH]2)C1` (stereo not drawn), the “hERG current change (%, negative = inhibition) at 1uM” value is 5.15%. As for `c1coc(-c2nnc(NC3=NCCC3)o2)c1`, the “hERG current change (%, negative = inhibition) at 1uM” value is 10.2%. Regarding `CN1CCN(c2nc(-c3cccs3)cc(C(F)(F)F)n2)CC1`, the “hERG current change (%, negative = inhibition) at 1uM” value is listed as 0.412%.

Regarding `COCCN1C(=O)N[C@@H](c2cccc(C(F)(F)F)c2)[C@H](C(C)=O)[C@H]1C`, the “hERG current change (%, negative = inhibition) at 1uM” value came to 13.8%. Turning to `O=C(CN1C(=O)NC2(CCCC2)C1=O)Nc1ccc(F)c(Cl)c1`, the “hERG current change (%, negative = inhibition) at 1uM” value is recorded as 14%. The same measure for `Cc1ccc(Nc2nc(-c3cccnc3)nc3ccccc23)cc1`: 4.43%. The same measure for `Cc1cccc(NC(=O)CNC(=O)c2sc3ccccc3c2Cl)n1`: 7.44%; for `COc1c(C)cc(C(=O)C2CCCN(C(=O)c3cc(C)nc(C)n3)C2)cc1C` (stereo not drawn): 16.1%; for `O=C(NCCc1ccccc1)c1ccc(CS(=O)(=O)Cc2ccc(F)cc2)o1`: 17.3%.

`Nc1nc(Cl)cc(Nc2ccccc2Cl)n1`: the “hERG current change (%, negative = inhibition) at 1uM” value is reported as 13.4%. `Cc1cc(C)c(NC(=O)CN2CCN3CCCC3C2)c(C)c1.O=C(O)/C=C/C(=O)O` (stereo not drawn): the “hERG current change (%, negative = inhibition) at 1uM” value was -1.48%. Consider `CSCCC(NC(=O)c1ccccc1Br)C(=O)NCC(C)(C)N1CCOCC1` (stereo not drawn), for which the “hERG current change (%, negative = inhibition) at 1uM” value came to 0.0891%. The result for `Cc1nnc(C)c2c(C)n(-c3ccccc3N)c(C)c12` reads 5.4%.

For `CC1CCN(CCCNC(=O)c2coc3nc4ccccc4nc23)CC1`, the “hERG current change (%, negative = inhibition) at 1uM” value came out at 5.14%. As to `COc1ccc(NC(=O)[C@@H]2CC=C[C@@H]3CCN(Cc4ccc(Cl)c(Cl)c4)C(=O)[C@@H]32)cc1`, the “hERG current change (%, negative = inhibition) at 1uM” value was determined as 8.2%. With `CC1=C(C(=O)OC(C)C)C(c2ccc(Cl)cc2)n2c(s/c(=C\c3ccc(OCC(=O)O)cc3)c2=O)=N1` (stereo not drawn), the “hERG current change (%, negative = inhibition) at 1uM” value worked out at 12.6%.

For the molecule `COc1ccc(C(=O)NCc2nnc(SCC(=O)Nc3cc(C)cc(C)c3)o2)cc1OC`, the “hERG current change (%, negative = inhibition) at 1uM” value is on record as 0.399%.

For `COc1ccc(-n2nc(C(=O)NCC(=O)Nc3cc(OC)ccc3OC)c3ccccc3c2=O)cc1`, the “hERG current change (%, negative = inhibition) at 1uM” value turned out to be 15.1%. The same measure for `COc1ccc(NC(=O)CC2Nc3cccc4cccc(c34)NC2=O)cc1` (stereo not drawn): -1.28%; for `CN(Cc1nnc(-c2ccc(F)cc2)o1)c1ccccc1`: 5.9%; for `Cc1ccc(-c2nnc(N3CCCCC3)c3ccccc23)cc1`: 6.13%. `CCSc1ccccc1C(=O)Nc1cc(OC)c(OC)c(OC)c1`: the “hERG current change (%, negative = inhibition) at 1uM” value is on record as 5.05%. The result for `COc1cc(NC(=O)C2CCN(S(=O)(=O)c3ccc4c(c3)CC(C)N4C(C)=O)CC2)cc(OC)c1OC` (stereo not drawn) reads 12.5%; that for `CC12CCC(C(=O)NNc3ccc([N+](=O)[O-])cc3)(CC1=O)C2(C)C` (stereo not drawn), 3.53%. In the case of `Cc1ccnc2nc(C(=O)OCC(=O)N(CC(C)C)CC(C)C)nn12`, the “hERG current change (%, negative = inhibition) at 1uM” value was 3.35%. The result for `Nc1ccn(Cc2ccccc2)n1` reads 4.91%; that for `Nc1nc2ccc(N3CCOCC3)cc2s1`, -0.364%. The same measure for `CO/N=C/c1ccc(N2CCN(C(=O)c3ccc(Cl)cc3Cl)CC2)c([N+](=O)[O-])c1`: -18.5%; for `Cc1cc(/C=N/NC(=O)c2ccc(O)cc2)c(C)n1CC(C)C`: -0.384%. For the molecule `CN(Cc1ccccc1)c1ccc(N2C(=O)CCC2=O)cc1[N+](=O)[O-]`, the “hERG current change (%, negative = inhibition) at 1uM” value is given as 7.39%. Turning to `C/C(=N/NC(=O)c1ccc(Cl)cc1Cl)c1cccnc1`, the “hERG current change (%, negative = inhibition) at 1uM” value is listed as 18.6%.

Take `Cc1ccc(CN2C(=O)CCC2C(=O)N2CCN(c3ccc(F)cc3)CC2)cc1` (stereo not drawn): the “hERG current change (%, negative = inhibition) at 1uM” value turned out to be 2.62%. The result for `COc1cc(/C=N/NC(=O)CNC(=O)c2ccco2)ccc1O` reads 5.36%; that for `CN1CCN(C(=O)c2cc3ccccc3cc2O)CC1`, 3.96%. In the case of `COc1cc(/C=C2\SC(=S)N(C(Cc3ccccc3)C(=O)O)C2=O)ccc1O` (stereo not drawn), the “hERG current change (%, negative = inhibition) at 1uM” value is given as 12.1%. The result for `CC1(NC(=S)NCCCCCCNC(=S)NC2(C)CCS(=O)(=O)C2)CCS(=O)(=O)C1` (stereo not drawn) reads 9.73%; that for `CCOCCCNC(=O)C1(O)c2ccccc2NC(=O)N1c1ccc(Cl)cc1` (stereo not drawn), 7.28%. On to `CCOP(=O)(/C=C(\Cl)c1ccccc1)C(O)c1ccc(F)cc1` (stereo not drawn), for which the “hERG current change (%, negative = inhibition) at 1uM” value is reported as 9.42%. The result for `COc1cccc(/C=C/C(=O)Nc2ccc3[nH]c(=O)[nH]c3c2)c1` reads 12%; that for `O=C(NNC(=O)c1ccccc1-n1cccc1)c1cccc(Cl)c1`, 0.959%.
